{"source": "PubChem BioAssay AID485360", "about": "(National Center for Advancing Translational Sciences (NCATS), 2010)", "note": "About 1,500 (0.65%) of roughly 230,000 compounds were called active. The inconclusive results got no clear call from the source; some entries with a clear call stand among them for comparison. Calls come from the whole dose curve; as a rule, active = well fitted inhibition curve with a large enough effect; inconclusive = small, poorly fitted or top-dose-only effect; inactive = no such curve, though single readings can be large or run the other way. Where the call is inconclusive, the potency comes from a doubtful curve fit. Potency is the fitted concentration of half-maximal effect; tags give direction and shape of the fitted curve.", "data": [{"target": "Lethal(3)malignant brain tumor-like protein 1 (Homo sapiens) (UniProt Q9Y468)", "sequence (Q9Y468 whole entry, looked up)": "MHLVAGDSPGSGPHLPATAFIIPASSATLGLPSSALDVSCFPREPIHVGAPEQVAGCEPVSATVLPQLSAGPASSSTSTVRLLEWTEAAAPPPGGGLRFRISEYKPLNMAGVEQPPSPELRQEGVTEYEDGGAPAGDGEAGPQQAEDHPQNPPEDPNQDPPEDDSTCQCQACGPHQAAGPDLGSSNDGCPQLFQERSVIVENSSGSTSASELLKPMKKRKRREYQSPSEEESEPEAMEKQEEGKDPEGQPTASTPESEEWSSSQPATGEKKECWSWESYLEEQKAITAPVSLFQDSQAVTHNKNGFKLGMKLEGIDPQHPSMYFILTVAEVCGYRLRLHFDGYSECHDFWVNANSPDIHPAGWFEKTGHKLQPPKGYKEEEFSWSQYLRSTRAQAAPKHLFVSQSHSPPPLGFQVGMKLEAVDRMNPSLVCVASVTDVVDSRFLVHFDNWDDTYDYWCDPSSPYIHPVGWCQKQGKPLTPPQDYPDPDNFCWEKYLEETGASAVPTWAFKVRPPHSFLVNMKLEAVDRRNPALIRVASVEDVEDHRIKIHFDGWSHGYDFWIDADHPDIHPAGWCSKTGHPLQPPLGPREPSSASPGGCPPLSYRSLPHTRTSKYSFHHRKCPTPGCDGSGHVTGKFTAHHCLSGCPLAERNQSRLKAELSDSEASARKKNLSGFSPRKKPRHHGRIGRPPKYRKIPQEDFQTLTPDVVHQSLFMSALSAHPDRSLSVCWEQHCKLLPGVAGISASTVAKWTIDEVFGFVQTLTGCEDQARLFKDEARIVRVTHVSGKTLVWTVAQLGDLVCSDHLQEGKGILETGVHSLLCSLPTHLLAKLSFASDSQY", "assay": "qHTS Assay for the Inhibitors of L3MBTL1; note: nearly all actives have a fitted effect of over 60% in size", "conditions": "AlphaScreen L3MBTL1–H3K9me1 peptide binding; series mostly up to 57.1 µM", "outline": "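AlphaScreen proximity signal between nickel-chelate acceptor and streptavidin donor beads (final 10 ug/mL) reports binding of 50 nM L3MBTL1 to 75 nM biotin-H3 K9me1 peptide; complex incubated with compounds 30 min at room temperature; cefsulodin titration as control.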", "values": [{"compound": "COc1ccc(CCNc2oc(-c3ccco3)nc2C#N)cc1", "Potency": "inconclusive: 7.08 µM [inhibitor, single point]"}, {"compound": "CCOC(=O)c1ccc2c(c1)C1C=CCC1C(C(=O)OCC)N2", "note": "(centres undefined)", "Potency": "inconclusive: 35.5 µM [inhibitor, single point]"}, {"compound": "CSCCOC(=O)COc1ccc(/C=N/NC(=O)c2nn(C)cc2Cl)cc1", "Potency": "inconclusive: 35.5 µM [inhibitor, single point]"}, {"compound": "O=c1cc(-c2ccc(O)cc2)oc2c(O)c(O)c(O)c(O)c12", "Potency": "active: 3.16 µM"}, {"compound": "Cc1ccc(NC2=C(N3CCOCC3)C(=O)c3ccccc3C2=O)cc1", "Potency": "inconclusive: 28.2 µM [inhibitor, single point]"}, {"compound": "O=C(Nc1nc2c(ccc3ccccc32)s1)c1cc([N+](=O)[O-])ccc1N1CCOCC1", "Potency": "inconclusive: 20 µM [inhibitor, single point]"}, {"compound": "COc1cc(C(=O)Nc2cccc3ncccc23)cc(OC)c1OC", "Potency": "inconclusive: 3.55 µM [inhibitor, single point]"}, {"compound": "CC1CCC(C(C)C)C(OC(=O)Cn2c(-c3ccccc3)[n+](C)c3ccccc32)C1", "note": "(centres undefined)", "Potency": "inactive"}, {"compound": "O=[N+]([O-])c1ccc(/C=N/Nc2nc(NCc3ccccc3)nc(N3CCOCC3)n2)cc1", "Potency": "inconclusive: 0.1 µM [inhibitor, full curve, poor fit]"}, {"compound": "COCCn1c(C)cc(C2=NNC(=Nc3ccccc3)SC2)c1C", "Potency": "inactive"}, {"compound": "Cc1cccc(-n2c(SCC(N)=O)nnc2-c2ccccn2)c1C", "Potency": "inconclusive: 31.6 µM [inhibitor, single point]"}, {"compound": "O=C(Nc1cc(Cl)ccc1F)c1ccc(-n2cncn2)c([N+](=O)[O-])c1", "Potency": "inactive"}, {"compound": "CCN(CC)C(=O)c1ccc(Nc2nnc(-c3ccc(O)cc3)c3ccccc23)cc1", "Potency": "inactive"}, {"compound": "Cc1nn(-c2cccc(C(=O)O)c2)c(C)c1[N+](=O)[O-]", "Potency": "inconclusive: 39.8 µM [inhibitor, single point]"}, {"compound": "COc1ccc2c(c1)c1nc3n(c(=O)c1n2CC(=O)Nc1cc(C)[nH]n1)CCS3", "Potency": "inconclusive: 3.55 µM [inhibitor, single point]"}, {"compound": "Cc1ccc(Cl)cc1-c1ccc(C=Nc2ccc(N3CCOCC3)cc2)o1", "Potency": "inconclusive: 20 µM [inhibitor, partial curve]"}, {"compound": "C=CCn1c(SCC(=O)Nc2ccc(-c3nc4ccc(C)cc4s3)cc2)nnc1-c1ccccc1", "Potency": "inconclusive: 31.6 µM [inhibitor, partial curve]"}, {"compound": "CN(C)S(=O)(=O)c1ccc(NCC2COc3ccccc3O2)c([N+](=O)[O-])c1", "note": "(centres undefined)", "Potency": "inconclusive: 5.62 µM [inhibitor, single point]"}, {"compound": "COc1ccc(OCc2nc(C#N)c(N3CCN(c4ccc(OC)cc4)CC3)o2)cc1", "Potency": "inactive"}, {"compound": "C#CCOCCOCCOCCNc1nc(N2CCN(C(=O)[C@H](CCC(=O)O)n3cc(C(N)CO)nn3)CC2)nc(N2CCN(C(=O)[C@H](Cc3ccc(O)cc3)n3cc(C(N)[C@H](C)CC)nn3)CC2)n1", "note": "(some centres undefined)", "Potency": "inconclusive: 35.5 µM [inhibitor, single point]"}, {"compound": "O=C(NCCCn1ccnc1)c1ccc(N2CCCCC2)c([N+](=O)[O-])c1", "Potency": "inconclusive: 14.1 µM [inhibitor, partial curve]"}, {"compound": "CC[n+]1c(/C=C(/C)SC)sc2ccccc21", "Potency": "inactive"}, {"compound": "O=C(Nc1nccs1)c1nc[nH]c1C(=O)N1CCN(c2ccccc2)CC1", "Potency": "inconclusive: 28.2 µM [inhibitor, single point]"}, {"compound": "O=C(CCS(=O)(=O)c1ccc(Br)cc1)Nc1cc(F)ccc1F", "Potency": "active: 28.2 µM"}, {"compound": "CCOC(=O)CSc1nc2sc3c(c2c(=O)n1C1CCCCC1)CCN(C)C3", "Potency": "inconclusive: 7.94 µM [inhibitor, full curve, poor fit]"}, {"compound": "c1ccc(Nc2cc(Nc3ccccc3)[nH]n2)cc1", "Potency": "inactive"}, {"compound": "O=C(c1ccco1)N1CCN(C(=O)c2ccc(-c3ccc([N+](=O)[O-])cc3)o2)CC1", "Potency": "inconclusive: 35.5 µM [inhibitor, single point]"}, {"compound": "O=C(COC(=O)c1cnccn1)Nc1ncc(Cl)cc1Cl", "Potency": "inconclusive: 39.8 µM [inhibitor, single point]"}, {"compound": "CCN(CC)S(=O)(=O)c1ccc(N2CCCCC2)c(NC(=O)/C(C#N)=C/c2ccc(OC)cc2)c1", "Potency": "inactive"}, {"compound": "C[N+]1(C2CCC3CCC2C3O)CCCC1", "note": "(centres undefined)", "Potency": "inactive"}, {"compound": "CC(=O)Nc1ccc(-n2c(C)ccc2C)cc1", "Potency": "inconclusive: 0.1 µM [inhibitor, full curve, poor fit]"}, {"compound": "c1ccc2c(c1)CCN(C1=Nc3cccc4cccc1c34)C2", "Potency": "inconclusive: 12.6 µM [inhibitor, partial curve]"}, {"compound": "O=C(O)c1ccccc1-c1ccc(/C=c2\\sc3nc4cc(Br)cnc4n3c2=O)o1", "Potency": "active: 12.6 µM"}, {"compound": "CCN(CC)c1ccc2nc3ccccc3[n+](CC)c2c1", "Potency": "active: 20 µM"}, {"compound": "COc1ccc(N2CCN(c3oc(Cc4cccc5ccccc45)nc3C#N)CC2)cc1", "Potency": "inconclusive: 8.91 µM [inhibitor, single point]"}, {"compound": "CCN1CCN(c2cc(C)c3cc(NC(=O)c4cccs4)ccc3n2)CC1", "Potency": "inconclusive: 35.5 µM [inhibitor, single point]"}, {"compound": "Brc1cccc(OCCN2CCCCC2)c1", "Potency": "inactive"}, {"compound": "O=c1cc(-c2ccccc2)[nH]n1-c1nc2ccccc2[nH]1", "Potency": "inconclusive: 39.8 µM [inhibitor, single point]"}, {"compound": "COc1ccccc1-c1nn2c(-c3ccco3)nnc2s1", "Potency": "inconclusive: 28.2 µM [inhibitor, partial curve]"}, {"compound": "O=C(N/N=C\\c1cccs1)c1sccc1-n1cccc1", "Potency": "inconclusive: 17.8 µM [inhibitor, single point]"}, {"compound": "CC(=O)Nc1cc2c(=O)n(Cc3ccccc3)c(C)nc2cc1N1CCOCC1", "Potency": "inactive"}, {"compound": "COC(=O)[C@H](CCSC)NC(=O)Cn1cnc2c(NCc3ccccc3)ncnc21", "Potency": "inactive"}, {"compound": "COc1ccc(Nc2ccc3c(c2)=NC2(CCCCC2)[N+]=3[O-])cc1", "Potency": "inconclusive: 31.6 µM [inhibitor, single point]"}, {"compound": "N#C/C(=C/c1ccccc1[N+](=O)[O-])c1nc(C2CC2)cs1", "Potency": "inconclusive: 15.8 µM [inhibitor, single point]"}, {"compound": "O=C(Nc1ccc(S(=O)(=O)Nc2ncccn2)cc1)c1ccc(S(=O)(=O)N2CCCC2)cc1", "Potency": "inconclusive: 0.112 µM [inhibitor, full curve, poor fit]"}, {"compound": "CC1=NN(c2ccccc2)C(=O)/C1=C\\C=C1/N(C)c2ccccc2C1(C)C", "Potency": "inconclusive: 8.91 µM [inhibitor, partial curve]"}, {"compound": "Cc1c(O)c(=O)n(-c2ccccc2)n1C", "Potency": "inactive"}, {"compound": "Oc1[nH]c2ccc(Br)cc2c1N=NC(=S)N1CCOCC1", "Potency": "inconclusive: 31.6 µM [inhibitor, partial curve]"}, {"compound": "Cc1ccc(NC2c3ccccc3C(=O)N2c2cccnc2)cc1", "note": "(centres undefined)", "Potency": "inactive"}, {"compound": "Nc1c(C(=O)NCc2ccco2)sc2nc3c(cc12)C(=O)CCC3", "Potency": "active: 31.6 µM"}, {"compound": "CCOC(=O)c1sc(NC(=S)NC(=O)C2CCCC2)cc1C", "Potency": "inconclusive: 0.562 µM [inhibitor, single point]"}, {"compound": "CCCCN(C(=O)c1cc(OC)c(OC)c(OC)c1)C1=CC2CCC(C1)N2C", "note": "(centres undefined)", "Potency": "inactive"}, {"compound": "CCc1cccc(NC(=O)CCc2nc3sc4c(c3c(=O)[nH]2)CCCC4)c1", "Potency": "inconclusive: 39.8 µM [inhibitor, single point]"}, {"compound": "CC(C)(C)NC(=O)C(c1cccnc1)N(C(=O)c1ccc(Cl)nc1)C1CCCC1", "note": "(centres undefined)", "Potency": "inconclusive: 35.5 µM [inhibitor, single point]"}, {"compound": "O=[N+]([O-])c1ccc(COc2cccc(CNc3ccc(F)cc3)c2)cc1", "Potency": "inconclusive: 14.1 µM [inhibitor, partial curve]"}, {"compound": "CC1CN(Cc2nc3c(c(=O)n(C)c(=O)n3C)n2CC(=O)c2ccccc2)CC(C)O1", "note": "(centres undefined)", "Potency": "inconclusive: 7.08 µM [inhibitor, single point]"}, {"compound": "COc1ccc(-n2cnc3cc(NCc4cccs4)ccc32)cc1", "Potency": "inconclusive: 22.4 µM [inhibitor, single point]"}, {"compound": "O=[N+]([O-])c1ccccc1-c1ccc(C(=S)N2CCCC2)o1", "Potency": "inconclusive: 3.55 µM [inhibitor, partial curve]"}, {"compound": "O=Cc1coc2ccc3ccccc3c2c1=O", "Potency": "inactive"}, {"compound": "O=C(O)/C(=C\\c1ccco1)NC(=O)c1cccc2ccccc12", "Potency": "inconclusive: 39.8 µM [inhibitor, single point]"}, {"compound": "Cc1cc(C)n2nc(C(=O)N/N=C/c3cccs3)nc2n1", "Potency": "inconclusive: 0.891 µM [inhibitor, single point]"}, {"compound": "C/C(=N\\NC(=S)Nc1c(C)cccc1C)c1ccc(O)cc1", "Potency": "inconclusive: 31.6 µM [inhibitor, single point]"}, {"compound": "COc1ccccc1C(=O)NCCCN1CCCC1=O", "Potency": "inconclusive: 6.31 µM [inhibitor, single point]"}, {"compound": "CC(C)CN(C(=O)COC(=O)c1ccc([N+](=O)[O-])o1)C1CCS(=O)(=O)C1", "note": "(centres undefined)", "Potency": "inconclusive: 35.5 µM [inhibitor, partial curve]"}, {"compound": "Cc1ccc2c(c1)N(C(=O)CSc1nncn1C)C(C)(C)c1ssc(=S)c1-2", "Potency": "inconclusive: 28.2 µM [inhibitor, single point]"}, {"compound": "O=C(CCNc1ccc(F)cc1)c1cc2ccccc2o1", "Potency": "inconclusive: 5.62 µM [inhibitor, full curve, poor fit]"}, {"compound": "Cc1c(C(=O)NCc2ccc3c(c2)cc(C)n3C)cccc1[N+](=O)[O-]", "Potency": "inactive"}, {"compound": "COc1ccc(Sc2nc(-c3ccccn3)ncc2OC)cc1", "Potency": "active: 3.55 µM"}, {"compound": "O=[N+]([O-])c1cc(/C=N/O)ccc1Oc1ccccc1Cl", "Potency": "inconclusive: 39.8 µM [inhibitor, single point]"}]}]}
